Among all 310,000 compounds or so, about 2,200 (0.71%) showed an effect of 50% or more. The effect is printed as a negative number. The list shows a part of the results.
Biological target: human ether-à-go-go-related gene (hERG) potassium channel (human, UniProt Q12809)
Assay: primary screen, population patch clamp on CHO cells stably expressing hERG

Sequence of human ether-à-go-go-related gene (hERG) potassium channel (Q12809 whole entry, looked up): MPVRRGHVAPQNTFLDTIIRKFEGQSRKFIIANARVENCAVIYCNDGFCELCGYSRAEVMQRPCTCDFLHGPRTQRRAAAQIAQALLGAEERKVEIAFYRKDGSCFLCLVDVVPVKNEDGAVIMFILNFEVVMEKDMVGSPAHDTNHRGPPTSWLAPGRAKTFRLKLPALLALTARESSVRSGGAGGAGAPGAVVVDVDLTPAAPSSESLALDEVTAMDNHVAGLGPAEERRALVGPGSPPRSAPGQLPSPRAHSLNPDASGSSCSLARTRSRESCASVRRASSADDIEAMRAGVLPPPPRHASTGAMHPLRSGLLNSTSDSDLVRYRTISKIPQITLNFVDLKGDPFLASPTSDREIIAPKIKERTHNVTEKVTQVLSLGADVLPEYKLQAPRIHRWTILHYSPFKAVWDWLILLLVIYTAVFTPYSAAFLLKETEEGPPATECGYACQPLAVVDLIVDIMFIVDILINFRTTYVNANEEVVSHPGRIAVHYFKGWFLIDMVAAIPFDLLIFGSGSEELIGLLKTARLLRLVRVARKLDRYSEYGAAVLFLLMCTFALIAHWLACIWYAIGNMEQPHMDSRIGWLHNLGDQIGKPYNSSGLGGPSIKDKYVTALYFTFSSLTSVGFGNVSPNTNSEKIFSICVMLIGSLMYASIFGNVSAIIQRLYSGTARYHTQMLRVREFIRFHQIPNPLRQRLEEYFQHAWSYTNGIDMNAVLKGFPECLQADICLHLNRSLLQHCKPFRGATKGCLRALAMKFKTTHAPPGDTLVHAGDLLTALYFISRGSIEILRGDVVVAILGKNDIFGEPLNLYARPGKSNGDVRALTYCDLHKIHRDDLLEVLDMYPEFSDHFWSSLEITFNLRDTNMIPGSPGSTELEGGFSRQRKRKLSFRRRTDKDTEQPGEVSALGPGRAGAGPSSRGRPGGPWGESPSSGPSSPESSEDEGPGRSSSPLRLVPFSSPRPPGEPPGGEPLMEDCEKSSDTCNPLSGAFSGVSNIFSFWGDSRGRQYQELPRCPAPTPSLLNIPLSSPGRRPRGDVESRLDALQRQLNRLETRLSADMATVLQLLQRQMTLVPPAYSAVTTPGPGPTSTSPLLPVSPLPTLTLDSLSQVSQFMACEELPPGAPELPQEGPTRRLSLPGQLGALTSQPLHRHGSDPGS

**Q.** How did the “hERG current change (%, negative = inhibition) at 1uM” value turn out when `Cc1ccnc2nc(C(=O)OCC(=O)N3CCc4ccccc43)nn12` was run?
**A.** 16.4%

**Q.** For `Cc1cc(-c2ccccc2C(=O)NC2CCCCC2)on1`, which “hERG current change (%, negative = inhibition) at 1uM” value is on record?
**A.** 8.43%

**Q.** Which “hERG current change (%, negative = inhibition) at 1uM” value does the source give for `CC(C)CCN1C(=O)c2ccc(C(=O)NCc3ccccn3)cc2C1=O` here?
**A.** -34.6%

**Q.** Which “hERG current change (%, negative = inhibition) at 1uM” value does the source give for `Cc1cc(C)cc(C(=O)Nc2ccc3[nH]c(=O)[nH]c3c2)c1` here?
**A.** 14.9%

**Q.** `CC(Sc1ccc2c(c1)OCCO2)C(=O)Nc1ccc(N2CCOCC2)cc1` (centres unmarked) was tested. Which “hERG current change (%, negative = inhibition) at 1uM” value did it give?
**A.** 6.44%

**Q.** Which “hERG current change (%, negative = inhibition) at 1uM” value does the source give for `COc1ccc(-c2nnn(CC(=O)N(CCO)C(C(=O)NC3CCCC3)c3ccncc3)n2)cc1` (centres unmarked) here?
**A.** 13.6%

**Q.** How did the “hERG current change (%, negative = inhibition) at 1uM” value turn out when `CC(NC(=O)CSc1n[nH]c(N)n1)c1ccccc1` (centres unmarked) was run?
**A.** 7.03%

**Q.** For `Cc1cc(C)c(NC(=O)OCCN2CCOCC2)c(C)c1`, which “hERG current change (%, negative = inhibition) at 1uM” value is on record?
**A.** 0.695%

**Q.** With `Cc1ccc(-c2nc(CS(=O)(=O)CC(=O)N3CC(C)CC(C)C3)c(C)o2)cc1` (centres unmarked) as the compound, how does the “hERG current change (%, negative = inhibition) at 1uM” value read?
**A.** 5.88%

**Q.** How did the “hERG current change (%, negative = inhibition) at 1uM” value turn out when `CN(C)C(=O)OCC1COc2ccccc2O1` (centres unmarked) was run?
**A.** 13.1%

**Q.** `CON(C)C(=O)Nc1ccc(Cl)cc1` was tested. Which “hERG current change (%, negative = inhibition) at 1uM” value did it give?
**A.** 16.7%

**Q.** `O=S1(=O)CCN(Cc2ccc(Cl)c(Cl)c2)CC1` was tested. Which “hERG current change (%, negative = inhibition) at 1uM” value did it give?
**A.** 13.8%

**Q.** For `CCN(CC)Cc1c(O)ccc2c1O/C(=C\C=C\c1ccccc1)C2=O`, which “hERG current change (%, negative = inhibition) at 1uM” value is on record?
**A.** 10.1%

**Q.** `O=S(=O)(NCc1c(Cl)cccc1Oc1ccccc1)c1ccccc1` was tested. Which “hERG current change (%, negative = inhibition) at 1uM” value did it give?
**A.** 13.3%

**Q.** How did the “hERG current change (%, negative = inhibition) at 1uM” value turn out when `Cc1ccnc(N2CCC(C(=O)NCc3ccc4c(c3)OCO4)CC2)n1` was run?
**A.** -9.7%

**Q.** For `O=C(NNc1ccc([N+](=O)[O-])cc1)C1C2CCCCC21` (centres unmarked), which “hERG current change (%, negative = inhibition) at 1uM” value is on record?
**A.** 7.22%

**Q.** For `CCCc1nn2c(=O)c(C(c3cccc(Cl)c3)c3c(O)nc4sc(CCC)nn4c3=O)c(O)nc2s1`, which “hERG current change (%, negative = inhibition) at 1uM” value is on record?
**A.** 20.7%

**Q.** For `CCn1c2ccc(C)cc2c2nc3cc(C(=O)O)ccc3nc21`, which “hERG current change (%, negative = inhibition) at 1uM” value is on record?
**A.** -2.82%

**Q.** `CCN1C(=O)c2ccc(C(=O)Nc3c(C)cc(C)cc3C)cc2C1=O` was tested. Which “hERG current change (%, negative = inhibition) at 1uM” value did it give?
**A.** 17.9%

**Q.** For `COc1cccc(NC(=S)NCc2cccnc2)c1`, which “hERG current change (%, negative = inhibition) at 1uM” value is on record?
**A.** 11.1%

**Q.** With `Cc1cccc(CSc2ccc(-c3ccco3)nn2)c1` as the compound, how does the “hERG current change (%, negative = inhibition) at 1uM” value read?
**A.** -1.15%

**Q.** How did the “hERG current change (%, negative = inhibition) at 1uM” value turn out when `O=C(COC(=O)c1cc([N+](=O)[O-])ccc1NCCO)NCc1cccs1` was run?
**A.** 9.23%

**Q.** With `CCOC(=O)c1ccc(P(=O)(c2ccccc2)c2ccccc2)cc1` as the compound, how does the “hERG current change (%, negative = inhibition) at 1uM” value read?
**A.** 2.35%

**Q.** With `COc1ccc(-c2[nH]ncc2CN2CCN(C(=O)c3ccco3)CC2)cc1F` as the compound, how does the “hERG current change (%, negative = inhibition) at 1uM” value read?
**A.** 17.4%

**Q.** For `COc1cccc(CNc2ncn[nH]2)c1OCc1ccc(F)cc1`, which “hERG current change (%, negative = inhibition) at 1uM” value is on record?
**A.** 10.2%

**Q.** `COc1ccc(C2(CNC(=O)c3cc([N+](=O)[O-])cc([N+](=O)[O-])c3)CCCC2)cc1OC` was tested. Which “hERG current change (%, negative = inhibition) at 1uM” value did it give?
**A.** 2.19%

From PMC4336329 (PLoS ONE, 2015)
